Laboratory results reported in PubChem BioAssay (NCI).
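Compound exposure: 48 hours, 5 concentrations, 96-well plates. At the TGI there is no net growth.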 A number of entries come with more than one value. The other results are left out here. An entry can have further records. The tests behind the records often covered other concentration ranges, not given here; some values may only mark the edge of a range.

Test system: MDA-MB-468 breast
Test: NCI anticancer screen, dose series, 48 h

SMILES: CC(=O)O[C@@]12CO[C@@H]1C[C@H](O)[C@@]1(C)C(=O)[C@H](O)C3=C(C)[C@@H](OC(=O)[C@H](O)[C@@H](NC(=O)OC(C)(C)C)c4ccccc4)C[C@@](O)([C@@H](OC(=O)c4ccccc4)C12)C3(C)C (stereo partly specified)
- TGI: 11.3 µM and 46 nM
